{
  "source": "paper PMC12820563",
  "about": "“FoxP3 forms a head-to-head dimer in vivo and stabilizes its multimerization on adjacent microsatellites”",
  "note": "This is one part of the list.",
  "data": [
    {"biological_target": "T1, MBP-FoxP1dN (Mus musculus, UniProt P58462 326-579)", "T1 sequence": "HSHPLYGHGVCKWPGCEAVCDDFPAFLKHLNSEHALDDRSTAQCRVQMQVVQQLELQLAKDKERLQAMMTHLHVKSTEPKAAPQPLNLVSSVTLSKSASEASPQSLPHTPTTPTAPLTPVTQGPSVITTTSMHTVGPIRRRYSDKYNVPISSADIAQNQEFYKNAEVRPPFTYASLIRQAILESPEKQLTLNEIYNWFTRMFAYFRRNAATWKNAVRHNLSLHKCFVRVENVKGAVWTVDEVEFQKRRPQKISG", "test": "PD-seq (MBP pull-down with sequencing); 20 mM Tris-HCl pH 7.5, 100 mM NaCl, 1.5 mM MgCl2, 0.4 uM protein, 0.1 uM dsDNA library, 30 min, room temperature, amylose pull-down; high values mean tight binding", "conditions": "protein: recombinant; tags: His6-MBP; chain copies: 2; dsDNA, one strand shown", "method_in_brief": "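A fragment of mouse FoxP3 or FoxP1 without its N-terminus, carrying a His6-MBP tag and produced in E. coli, was combined at 0.4 µM with a 0.1 µM degenerate double-stranded DNA library filled in with Klenow. The mixture sat for 30 min at room temperature in Tris pH 7.5 buffer containing NaCl and MgCl2. Protein–DNA complexes were captured on amylose resin, washed three times, and the DNA was freed with proteinase K, barcoded by PCR and sequenced on Illumina. Binding is expressed as reads-per-million enrichment of pull-down over input, with replicates pooled.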", "values": [
      {"sequence": "GATGATTGTTCTCCCAGCTGATGAATTAGCGGAATCGAGTAAACAAATTTTCCTAATCTTTCTGTTCAAGCGCCATCTAC", "binding signal": "0.962 RPM ratio (pull-down/input)"},
      {"sequence": "GATGATTGTTCTCCCAGCTGATGAATTATCGGCGTCGAGTAAACAAATTTTCCTAATCTTTCTGTTCAAGCGCCATCTAC", "binding signal": "0.997 RPM ratio (pull-down/input)"},
      {"sequence": "GATGATTGTTCTCCCAGCTGATGAATTTTTCCAATCGAGTAAACAAATTTTCCTAATCTTTCTGTTCAAGCGCCATCTAC", "binding signal": "1.05 RPM ratio (pull-down/input)"},
      {"sequence": "GATGATTGTTCTCCCAGCTGATGAATTTGAGATTTCGAGTAAACAAATTTTCCTAATCTTTCTGTTCAAGCGCCATCTAC", "binding signal": "0.895 RPM ratio (pull-down/input)"},
      {"sequence": "GATGATTGTTCTCCCAGCTGATGAATTAATGAGCTCGAGTAAACAAATTTTCCTAATCTTTCTGTTCAAGCGCCATCTAC", "binding signal": "0.843 RPM ratio (pull-down/input)"},
      {"sequence": "GATGATTGTTCTCCCAGCTGATGAATTCCCGTCCTCGAGTAAACAAATTTTCCTAATCTTTCTGTTCAAGCGCCATCTAC", "binding signal": "0.781 RPM ratio (pull-down/input)"},
      {"sequence": "GATGATTGTTCTCCCAGCTGATGAATTTTATATGTCGAGTAAACAAATTTTCCTAATCTTTCTGTTCAAGCGCCATCTAC", "binding signal": "0.988 RPM ratio (pull-down/input)"},
      {"sequence": "GATGATTGTTCTCCCAGCTGATGAATTGCCGAGCTCGAGTAAACAAATTTTCCTAATCTTTCTGTTCAAGCGCCATCTAC", "binding signal": "0.861 RPM ratio (pull-down/input)"},
      {"sequence": "GATGATTGTTCTCCCAGCTGATGAATTGGGTGGATCGAGTAAACAAATTTTCCTAATCTTTCTGTTCAAGCGCCATCTAC", "binding signal": "0.852 RPM ratio (pull-down/input)"},
      {"sequence": "GATGATTGTTCTCCCAGCTGATGAATTAACATTATCGAGTAAACAAATTTTCCTAATCTTTCTGTTCAAGCGCCATCTAC", "binding signal": "1.16 RPM ratio (pull-down/input)"},
      {"sequence": "GATGATTGTTCTCCCAGCTGATGAATTTTCCTACTCGAGTAAACAAATTTTCCTAATCTTTCTGTTCAAGCGCCATCTAC", "binding signal": "0.89 RPM ratio (pull-down/input)"},
      {"sequence": "GATGATTGTTCTCCCAGCTGATGAATTACTGTGTTCGAGTAAACAAATTTTCCTAATCTTTCTGTTCAAGCGCCATCTAC", "binding signal": "1.34 RPM ratio (pull-down/input)"},
      {"sequence": "GATGATTGTTCTCCCAGCTGATGAATTAGCGAAGTCGAGTAAACAAATTTTCCTAATCTTTCTGTTCAAGCGCCATCTAC", "binding signal": "0.825 RPM ratio (pull-down/input)"},
      {"sequence": "GATGATTGTTCTCCCAGCTGATGAATTATTCATCTCGAGTAAACAAATTTTCCTAATCTTTCTGTTCAAGCGCCATCTAC", "binding signal": "1.05 RPM ratio (pull-down/input)"},
      {"sequence": "GATGATTGTTCTCCCAGCTGATGAATTTTGCTGGTCGAGTAAACAAATTTTCCTAATCTTTCTGTTCAAGCGCCATCTAC", "binding signal": "0.918 RPM ratio (pull-down/input)"},
      {"sequence": "GATGATTGTTCTCCCAGCTGATGAATTGCGAGAGTCGAGTAAACAAATTTTCCTAATCTTTCTGTTCAAGCGCCATCTAC", "binding signal": "0.971 RPM ratio (pull-down/input)"},
      {"sequence": "GATGATTGTTCTCCCAGCTGATGAATTCCAAAAATCGAGTAAACAAATTTTCCTAATCTTTCTGTTCAAGCGCCATCTAC", "binding signal": "1 RPM ratio (pull-down/input)"},
      {"sequence": "GATGATTGTTCTCCCAGCTGATGAATTACCGCAGTCGAGTAAACAAATTTTCCTAATCTTTCTGTTCAAGCGCCATCTAC", "binding signal": "0.938 RPM ratio (pull-down/input)"},
      {"sequence": "GATGATTGTTCTCCCAGCTGATGAATTCGATGAGTCGAGTAAACAAATTTTCCTAATCTTTCTGTTCAAGCGCCATCTAC", "binding signal": "0.87 RPM ratio (pull-down/input)"},
      {"sequence": "GATGATTGTTCTCCCAGCTGATGAATTAATAAGGTCGAGTAAACAAATTTTCCTAATCTTTCTGTTCAAGCGCCATCTAC", "binding signal": "0.941 RPM ratio (pull-down/input)"},
      {"sequence": "GATGATTGTTCTCCCAGCTGATGAATTGCTCGTTTCGAGTAAACAAATTTTCCTAATCTTTCTGTTCAAGCGCCATCTAC", "binding signal": "0.932 RPM ratio (pull-down/input)"},
      {"sequence": "GATGATTGTTCTCCCAGCTGATGAATTGCATCTGTCGAGTAAACAAATTTTCCTAATCTTTCTGTTCAAGCGCCATCTAC", "binding signal": "1.51 RPM ratio (pull-down/input)"},
      {"sequence": "GATGATTGTTCTCCCAGCTGATGAATTTGAGGAGTCGAGTAAACAAATTTTCCTAATCTTTCTGTTCAAGCGCCATCTAC", "binding signal": "0.805 RPM ratio (pull-down/input)"},
      {"sequence": "GATGATTGTTCTCCCAGCTGATGAATTCTCCTTCTCGAGTAAACAAATTTTCCTAATCTTTCTGTTCAAGCGCCATCTAC", "binding signal": "0.78 RPM ratio (pull-down/input)"},
      {"sequence": "GATGATTGTTCTCCCAGCTGATGAATTCAGACGATCGAGTAAACAAATTTTCCTAATCTTTCTGTTCAAGCGCCATCTAC", "binding signal": "0.763 RPM ratio (pull-down/input)"},
      {"sequence": "GATGATTGTTCTCCCAGCTGATGAATTGAACCAGTCGAGTAAACAAATTTTCCTAATCTTTCTGTTCAAGCGCCATCTAC", "binding signal": "0.814 RPM ratio (pull-down/input)"},
      {"sequence": "GATGATTGTTCTCCCAGCTGATGAATTCTAGCGTTCGAGTAAACAAATTTTCCTAATCTTTCTGTTCAAGCGCCATCTAC", "binding signal": "0.969 RPM ratio (pull-down/input)"},
      {"sequence": "GATGATTGTTCTCCCAGCTGATGAATTGGGTTGTTCGAGTAAACAAATTTTCCTAATCTTTCTGTTCAAGCGCCATCTAC", "binding signal": "1.07 RPM ratio (pull-down/input)"},
      {"sequence": "GATGATTGTTCTCCCAGCTGATGAATTAGGGGCCTCGAGTAAACAAATTTTCCTAATCTTTCTGTTCAAGCGCCATCTAC", "binding signal": "0.806 RPM ratio (pull-down/input)"},
      {"sequence": "GATGATTGTTCTCCCAGCTGATGAATTCAGTATCTCGAGTAAACAAATTTTCCTAATCTTTCTGTTCAAGCGCCATCTAC", "binding signal": "0.974 RPM ratio (pull-down/input)"},
      {"sequence": "GATGATTGTTCTCCCAGCTGATGAATTGGCAGATTCGAGTAAACAAATTTTCCTAATCTTTCTGTTCAAGCGCCATCTAC", "binding signal": "0.9 RPM ratio (pull-down/input)"},
      {"sequence": "GATGATTGTTCTCCCAGCTGATGAATTTTCATTCTCGAGTAAACAAATTTTCCTAATCTTTCTGTTCAAGCGCCATCTAC", "binding signal": "0.817 RPM ratio (pull-down/input)"}
    ]}
  ]
}
